Article PMC7480101
Results are given in words; binding and its absence hold for the method and conditions named. For part of these data: Binding seen in cells or lysates may run through a third protein. Some entries that bind do so weakly or less than the wild type.

Amino acid sequences for entries named in this document (tags omitted). A change or cut given only in a name is not applied to a line headed by its entry. Chains listed by the source or under a name are the forms on record and can include a tag or linker.
UniProt Q96CV9: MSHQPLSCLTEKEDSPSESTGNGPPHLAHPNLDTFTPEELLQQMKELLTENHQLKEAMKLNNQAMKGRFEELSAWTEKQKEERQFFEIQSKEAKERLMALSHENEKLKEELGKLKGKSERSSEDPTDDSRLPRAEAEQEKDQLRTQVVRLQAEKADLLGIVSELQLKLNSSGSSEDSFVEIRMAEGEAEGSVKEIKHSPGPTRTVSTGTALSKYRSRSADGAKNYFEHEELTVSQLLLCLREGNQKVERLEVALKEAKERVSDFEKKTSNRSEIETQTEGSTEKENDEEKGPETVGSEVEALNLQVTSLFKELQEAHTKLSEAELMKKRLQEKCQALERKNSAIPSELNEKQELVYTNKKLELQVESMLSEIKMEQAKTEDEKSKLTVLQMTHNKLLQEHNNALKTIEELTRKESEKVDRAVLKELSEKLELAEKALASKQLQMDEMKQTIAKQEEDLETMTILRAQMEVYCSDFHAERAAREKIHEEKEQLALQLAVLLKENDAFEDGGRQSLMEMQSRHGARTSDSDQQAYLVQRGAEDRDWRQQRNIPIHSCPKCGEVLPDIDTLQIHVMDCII
hAG-OPTN(143-5A-147, S473E) (Q96CV9, form named): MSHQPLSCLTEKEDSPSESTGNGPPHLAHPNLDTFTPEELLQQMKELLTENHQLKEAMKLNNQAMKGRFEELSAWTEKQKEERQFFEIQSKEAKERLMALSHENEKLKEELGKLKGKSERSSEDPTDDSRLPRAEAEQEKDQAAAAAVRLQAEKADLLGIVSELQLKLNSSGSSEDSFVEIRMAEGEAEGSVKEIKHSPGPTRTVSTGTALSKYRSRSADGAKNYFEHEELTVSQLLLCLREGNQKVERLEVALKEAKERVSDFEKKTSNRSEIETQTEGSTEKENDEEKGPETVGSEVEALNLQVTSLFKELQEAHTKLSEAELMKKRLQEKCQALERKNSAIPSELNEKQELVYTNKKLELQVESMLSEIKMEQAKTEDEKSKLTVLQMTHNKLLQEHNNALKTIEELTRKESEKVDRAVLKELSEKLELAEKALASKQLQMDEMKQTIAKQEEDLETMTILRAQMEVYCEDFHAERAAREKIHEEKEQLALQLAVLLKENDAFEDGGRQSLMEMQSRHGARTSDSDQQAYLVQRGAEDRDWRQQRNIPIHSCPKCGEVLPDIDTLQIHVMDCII
hAG-OPTN(210-577, S473E) (Q96CV9, form named): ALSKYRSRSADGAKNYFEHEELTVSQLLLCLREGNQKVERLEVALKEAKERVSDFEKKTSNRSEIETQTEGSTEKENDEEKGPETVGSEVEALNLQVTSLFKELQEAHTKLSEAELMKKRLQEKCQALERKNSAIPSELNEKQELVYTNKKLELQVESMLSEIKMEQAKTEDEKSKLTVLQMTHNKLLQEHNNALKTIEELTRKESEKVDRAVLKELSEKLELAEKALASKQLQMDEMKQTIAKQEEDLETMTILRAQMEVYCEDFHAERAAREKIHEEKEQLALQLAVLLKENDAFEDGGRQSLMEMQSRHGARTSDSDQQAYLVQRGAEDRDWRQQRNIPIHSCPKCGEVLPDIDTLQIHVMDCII
hAG-OPTN(301-577, S473E) (Q96CV9, form named): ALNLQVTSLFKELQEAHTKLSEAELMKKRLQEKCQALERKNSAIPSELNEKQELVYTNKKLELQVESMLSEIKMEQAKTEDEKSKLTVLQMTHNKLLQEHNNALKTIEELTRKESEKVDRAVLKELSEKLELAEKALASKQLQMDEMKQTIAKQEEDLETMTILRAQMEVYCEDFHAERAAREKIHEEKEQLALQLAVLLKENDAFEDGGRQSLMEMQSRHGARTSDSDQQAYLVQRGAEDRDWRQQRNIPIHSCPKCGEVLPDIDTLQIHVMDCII
hAG-OPTN(150-577, S473E) (Q96CV9, form named): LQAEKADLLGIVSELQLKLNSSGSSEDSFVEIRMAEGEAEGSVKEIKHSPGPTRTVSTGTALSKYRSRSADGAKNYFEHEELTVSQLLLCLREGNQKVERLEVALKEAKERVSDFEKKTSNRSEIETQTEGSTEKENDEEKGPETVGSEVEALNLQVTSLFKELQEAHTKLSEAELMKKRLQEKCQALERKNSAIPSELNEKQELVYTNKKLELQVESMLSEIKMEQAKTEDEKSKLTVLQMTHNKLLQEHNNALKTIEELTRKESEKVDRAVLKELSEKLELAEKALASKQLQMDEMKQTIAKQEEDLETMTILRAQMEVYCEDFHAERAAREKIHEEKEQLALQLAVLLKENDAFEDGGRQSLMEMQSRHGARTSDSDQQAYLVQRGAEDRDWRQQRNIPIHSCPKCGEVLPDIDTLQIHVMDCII
3FLAG-hAG-OPTN(4LA, S473E) (Q96CV9, form named): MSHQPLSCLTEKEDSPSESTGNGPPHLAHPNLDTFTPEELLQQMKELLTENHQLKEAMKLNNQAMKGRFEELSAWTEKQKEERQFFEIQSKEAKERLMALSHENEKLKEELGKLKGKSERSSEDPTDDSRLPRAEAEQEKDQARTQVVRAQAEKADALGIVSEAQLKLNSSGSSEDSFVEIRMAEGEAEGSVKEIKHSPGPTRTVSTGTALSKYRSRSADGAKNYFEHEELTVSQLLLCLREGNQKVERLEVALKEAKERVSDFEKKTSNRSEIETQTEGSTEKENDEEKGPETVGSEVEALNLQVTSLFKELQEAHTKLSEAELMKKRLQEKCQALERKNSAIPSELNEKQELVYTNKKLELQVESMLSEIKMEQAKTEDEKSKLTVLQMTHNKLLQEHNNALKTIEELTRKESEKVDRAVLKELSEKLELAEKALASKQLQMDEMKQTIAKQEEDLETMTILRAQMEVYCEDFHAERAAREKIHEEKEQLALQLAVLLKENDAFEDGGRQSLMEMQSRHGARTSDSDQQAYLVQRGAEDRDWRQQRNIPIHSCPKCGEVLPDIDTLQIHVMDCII

Key:
[1] = target: hAG-OPTN(143-5A-147, S473E) (human) (UniProt Q96CV9); test: Fluoppi (phase-separated fluorescent foci in cells); hAG-tagged autophagy adaptor and HA-Ash-6Ub transiently co-expressed in HeLa (WT, Penta KO, FIP200 KO, ATG5 KO, ATG9A KO) or HCT116 (WT, TBK1-/-) cells; foci formation and incorporation of a third protein into the foci read by immunostaining and confocal microscopy; some samples with 2 µM BX-795 for 15 h
[2] = target: hAG-OPTN(210-577, S473E) (human) (UniProt Q96CV9); test: as above
[3] = target: hAG-OPTN(301-577, S473E) (human) (UniProt Q96CV9); test: as above
[4] = target: hAG-OPTN(150-577, S473E) (human) (UniProt Q96CV9); test: as above
[5] = target: 3FLAG-hAG-OPTN(4LA, S473E) (human) (UniProt Q96CV9); test: co-IP; HeLa cells transiently expressing 3FLAG-hAG-OPTN and HA-Ash-6Ub; 1 mM DSP cross-linking, 1% NP-40 buffer (20 mM Tris-HCl pH 8.0, 150 mM NaCl, 1 mM EDTA), sonication, anti-DDDDK-tag gel 90 min at 4°C, immunoblot
[6] = target: 3FLAG-hAG-OPTN(M44Q/L54Q, S473E) (human) (UniProt Q96CV9); test: as above

binding [1]: no binding
binding [2]: no binding
binding [3]: no binding
binding [4]: no binding
binding [5]: no binding
binding [6]: binds
B1: ATG9A (protein, UniProt Q7Z3C6 1-839)
chain: MAQFDTEYQRLEASYSDSPPGEEDLLVHVAEGSKSPWHHIENLDLFFSRVYNLHQKNGFTCMLIGEIFELMQFLFVVAFTTFLVSCVDYDILFANKMVNHSLHPTEPVKVTLPDAFLPAQVCSARIQENGSLITILVIAGVFWIHRLIKFIYNICCYWEIHSFYLHALRIPMSALPYCTWQEVQARIVQTQKEHQICIHKRELTELDIYHRILRFQNYMVALVNKSLLPLRFRLPGLGEAVFFTRGLKYNFELILFWGPGSLFLNEWSLKAEYKRGGQRLELAQRLSNRILWIGIANFLLCPLILIWQILYAFFSYAEVLKREPGALGARCWSLYGRCYLRHFNELEHELQSRLNRGYKPASKYMNCFLSPLLTLLAKNGAFFAGSILAVLIALTIYDEDVLAVEHVLTTVTLLGVTVTVCRSFIPDQHMVFCPEQLLRVILAHIHYMPDHWQGNAHRSQTRDEFAQLFQYKAVFILEELLSPIVTPLILIFCLRPRALEIIDFFRNFTVEVVGVGDTCSFAQMDVRQHGHPQWLSAGQTEASVYQQAEDGKTELSLMHFAITNPGWQPPRESTAFLGFLKEQVQRDGAAASLAQGGLLPENALFTSIQSLQSESEPLSLIANVVAGSSCRGPPLPRDLQGSRHRAEVASALRSFSPLQPGQAPTGRAHSTMTGSGVDARTASSGSSVWEGQLQSLVLSEYASTEMSLHALYMHQLHKQQAQAEPERHVWHRRESDESGESAPDEGGEGARAPQSIPRSASYPCAAPRPGAPETTALHGGFQRRYGGITDPGTVPRVPSHFSRLPLGGWAEDGQSASRHPEPVPEEGSEDELPPQVHKV
